Reference: the BET-seq Pho4 binding data (Le et al. 2018)
Some of the results follow. Values were computed here from the reads of four pooled replicates and scatter widely.

Each sequence was assayed against T1, Pho4 (S. cerevisiae) (UniProt P07270) (assay: relative binding free energy (BET-seq); higher = weaker binding). Conditions: reference: library average.
T1 sequence: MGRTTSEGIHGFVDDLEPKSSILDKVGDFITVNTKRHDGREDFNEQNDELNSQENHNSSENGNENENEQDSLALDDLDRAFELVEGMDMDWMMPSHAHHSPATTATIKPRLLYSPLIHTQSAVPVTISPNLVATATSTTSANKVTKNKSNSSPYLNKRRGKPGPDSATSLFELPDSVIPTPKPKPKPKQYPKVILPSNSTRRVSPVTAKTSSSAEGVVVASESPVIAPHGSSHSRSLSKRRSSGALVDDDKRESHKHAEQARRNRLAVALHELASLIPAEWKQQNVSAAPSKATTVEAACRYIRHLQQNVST

Sequence | relative binding free energy
GGGAACACGTGGGGCT | 0 kcal/mol
CAATGCACGTGAAGGT | 0.31 kcal/mol
ATAAACACGTGTGTTA | -0.16 kcal/mol
ATTTTCACGTGTCATG | 0.21 kcal/mol
TGGTACACGTGAACGG | 0.2 kcal/mol
ATAAACACGTGCTGTG | 0.06 kcal/mol
AGAGTCACGTGCAAGG | 0.07 kcal/mol
TTAGGCACGTGGGATA | -0.16 kcal/mol
GTTTTCACGTGGGAAC | 0.5 kcal/mol
ATGTCCACGTGGGAGT | -0.14 kcal/mol
TACTACACGTGTGGTA | 0.11 kcal/mol
TATTTCACGTGGTTCG | 0.19 kcal/mol
TATGTCACGTGGAGCT | 0.02 kcal/mol
AATGGCACGTGTGATA | -0.05 kcal/mol
TTTGTCACGTGTCTGT | 0.12 kcal/mol
GTTTCCACGTGAGTTG | 0.23 kcal/mol
CGGGTCACGTGTTCTT | 0.22 kcal/mol
ACGTTCACGTGGTTGT | 0.11 kcal/mol
TGTGACACGTGTTTAG | -0.06 kcal/mol
GTAGGCACGTGGGCTG | -0.19 kcal/mol
TTAAGCACGTGGTAGG | -0.13 kcal/mol
GGTTTCACGTGACGGA | 0.39 kcal/mol
AAAGTCACGTGGGCAT | -0.01 kcal/mol
AGAAGCACGTGGTTGG | -0.19 kcal/mol
TGTGTCACGTGTATAA | 0.02 kcal/mol
GTAGTCACGTGGATAT | 0.06 kcal/mol

Sequence | relative binding free energy
AGTGGCACGTGTTTAC | -0.05 kcal/mol
AAGCTCACGTGATGGT | 0.43 kcal/mol
GTTTGCACGTGTTGAG | 0.19 kcal/mol
CATGGCACGTGGAGTT | -0.04 kcal/mol
TGGATCACGTGAGCTT | 0.29 kcal/mol
TGGAGCACGTGTGTTA | 0.02 kcal/mol
GTATACACGTGGGGAA | -0.12 kcal/mol
TTTAACACGTGACATT | 0.18 kcal/mol
TGATGCACGTGAATTG | 0.2 kcal/mol
AGGCGCACGTGGAGGC | -0.05 kcal/mol
AGTGTCACGTGGTGAG | -0.14 kcal/mol
CGCGTCACGTGTTTGG | 0.02 kcal/mol
TAATGCACGTGTAATT | 0.06 kcal/mol
CTATGCACGTGTGCGT | -0.01 kcal/mol
TCTGTCACGTGTGAAT | 0.18 kcal/mol
ATGTACACGTGTATTT | 0.17 kcal/mol
ATTAGCACGTGCATGT | -0.1 kcal/mol
CGTGTCACGTGATTAT | 0.2 kcal/mol
CTTAACACGTGTCGGG | 0.09 kcal/mol
TTACTCACGTGGGAGG | 0.08 kcal/mol
AAGTGCACGTGGCTTA | -0.11 kcal/mol
ATTTTCACGTGGTGAT | 0.27 kcal/mol
TGGATCACGTGGTTTG | 0.08 kcal/mol
GTGTTCACGTGGTTTG | 0.28 kcal/mol
GATGGCACGTGTCGTG | 0.11 kcal/mol
TGTTTCACGTGTAGGG | 0.22 kcal/mol

Sequence | relative binding free energy
GTTTACACGTGATGTT | 0.38 kcal/mol
ATTTTCACGTGTTCAT | 0.28 kcal/mol
CGGGTCACGTGATATT | 0.22 kcal/mol
ACATACACGTGGTGGG | -0.13 kcal/mol
AGGGGCACGTGTGAGA | -0.14 kcal/mol
AAGAGCACGTGATGTG | 0.06 kcal/mol
ATATTCACGTGTTCGT | 0.22 kcal/mol
GTCAGCACGTGATAGT | 0.04 kcal/mol
TATGACACGTGTAGGA | 0.07 kcal/mol
TCCATCACGTGGTGGG | 0.12 kcal/mol
TGGCTCACGTGGGTGC | 0.03 kcal/mol
TGTTGCACGTGATAGT | -0.04 kcal/mol
CGTTCCACGTGAGTGT | 0.31 kcal/mol
GGTGACACGTGGTGGG | 0.09 kcal/mol
ATGGGCACGTGCAATT | -0.14 kcal/mol
TGTGACACGTGGGGGG | -0.1 kcal/mol
AGCTACACGTGTGGAT | 0.23 kcal/mol
TTAGGCACGTGATGTA | -0.08 kcal/mol
TAGGTCACGTGTGGGC | 0.03 kcal/mol
ATGGACACGTGTTATG | 0.15 kcal/mol
TAAAACACGTGATTTG | 0.16 kcal/mol
TGCAGCACGTGGAATG | 0.05 kcal/mol
CTTTGCACGTGGTTGG | -0.04 kcal/mol
AAGTTCACGTGTCTTT | 0.3 kcal/mol
GTTGCCACGTGGTGGG | -0.05 kcal/mol
GTGCTCACGTGAGTAG | 0.3 kcal/mol

Sequence | relative binding free energy
TTATGCACGTGCATTT | -0.06 kcal/mol
CTGGGCACGTGGGGCG | -0.27 kcal/mol
CTGATCACGTGTAGTT | 0.18 kcal/mol
TATGGCACGTGTTTAC | -0.15 kcal/mol
GATGTCACGTGGGACT | 0.03 kcal/mol
GTTTACACGTGTGAAG | 0.29 kcal/mol
ATAGGCACGTGTAGTC | -0.12 kcal/mol
AGTTCCACGTGCGGTG | 0.03 kcal/mol
GGATGCACGTGGTAGG | -0.14 kcal/mol
CTAGGCACGTGGTGAA | -0.12 kcal/mol
GGTGGCACGTGGACAT | -0.03 kcal/mol
ATAAGCACGTGTTCGG | -0.15 kcal/mol
TTTTGCACGTGCCAGG | -0.11 kcal/mol
TGTGACACGTGGGGCT | -0.18 kcal/mol
CGGGTCACGTGGCAAG | 0.02 kcal/mol
AAGGGCACGTGGGTGT | -0.21 kcal/mol
TAGTGCACGTGTGTGG | -0.01 kcal/mol
GGATTCACGTGTTAGT | 0.35 kcal/mol
CGTCTCACGTGTAGTT | 0.13 kcal/mol
TTTTGCACGTGTCTGC | -0.03 kcal/mol
TTTGTCACGTGATTGT | 0.25 kcal/mol
TTTCACACGTGGGAGT | 0.02 kcal/mol
TGGTGCACGTGACCGG | 0.01 kcal/mol
TCGGTCACGTGGGAAT | 0.04 kcal/mol
TTTAACACGTGGGGCG | -0.13 kcal/mol
TTTACCACGTGTTAGG | -0.01 kcal/mol

Sequence | relative binding free energy
GGTGCCACGTGTATGA | 0.12 kcal/mol
AGCGACACGTGTGGGA | 0.15 kcal/mol
TCGTTCACGTGTAGTC | 0.34 kcal/mol
TTGATCACGTGGTCAG | -0.03 kcal/mol
AGTCTCACGTGTATTT | 0.02 kcal/mol
TTATACACGTGGCTGT | 0.15 kcal/mol
GTGTACACGTGGACGG | 0.15 kcal/mol
TGCTACACGTGCTGGG | 0.05 kcal/mol
GCGGCCACGTGAGGGG | 0.1 kcal/mol
TGGATCACGTGGGCGC | 0.15 kcal/mol
CGTATCACGTGGTGTT | 0.05 kcal/mol
GAAAGCACGTGATTTG | 0.18 kcal/mol
AATAGCACGTGGTTGG | -0.1 kcal/mol
AGTTTCACGTGAGAAG | 0.32 kcal/mol
CTTGTCACGTGTTGAG | 0.12 kcal/mol
GGATACACGTGTGGGA | 0.12 kcal/mol
GTGAACACGTGAGGAG | 0.19 kcal/mol
GTCTGCACGTGGCTGG | -0.01 kcal/mol
CTTGTCACGTGTGTAG | 0.05 kcal/mol
ACGGGCACGTGTGGGG | -0.11 kcal/mol
TATTACACGTGGGAAA | 0.03 kcal/mol
CGGGCCACGTGATAGG | 0.03 kcal/mol
TTTAGCACGTGGTCGA | -0.18 kcal/mol
AAAAGCACGTGGTATA | -0.08 kcal/mol
GGGTTCACGTGTGGGT | 0.38 kcal/mol
TTGGTCACGTGATTAA | 0.38 kcal/mol

Sequence | relative binding free energy
GGTATCACGTGGTGCT | 0.06 kcal/mol
TTTGGCACGTGATCGA | -0.22 kcal/mol
ATGGGCACGTGGAGAA | -0.04 kcal/mol
AGTGACACGTGGGCTT | -0.22 kcal/mol
TGGGACACGTGGTGAC | -0.06 kcal/mol
GCGTGCACGTGTGGAC | 0.21 kcal/mol
ATATTCACGTGATAGT | 0.09 kcal/mol
TCTTACACGTGGTAGT | -0.01 kcal/mol
ACGCTCACGTGGAGGG | 0.18 kcal/mol
TTTGTCACGTGAACGT | 0.19 kcal/mol
ATATGCACGTGGTTGT | -0.08 kcal/mol
TACCGCACGTGTGGGA | 0.07 kcal/mol
AGAGCCACGTGGGTAG | -0.23 kcal/mol
CAGTTCACGTGTGCAT | 0.37 kcal/mol
TATTGCACGTGTAGCG | 0.17 kcal/mol
TCTTGCACGTGGTAAG | -0.03 kcal/mol
AGGTGCACGTGTGACT | -0.06 kcal/mol
TTTTGCACGTGCGCTG | 0 kcal/mol
CGGCGCACGTGGCAGG | -0.18 kcal/mol
CTGGACACGTGCTGGG | -0.03 kcal/mol
CAGTTCACGTGAGGAT | 0.42 kcal/mol
GTTTGCACGTGTGTAA | 0.03 kcal/mol
TGCGGCACGTGAATTG | 0.09 kcal/mol
TGGGGCACGTGAATTG | 0.25 kcal/mol
TGTCGCACGTGGGTTC | -0.12 kcal/mol
TAGATCACGTGGGTAG | 0.09 kcal/mol

Sequence | relative binding free energy
AGGTTCACGTGGTAAA | 0.28 kcal/mol
GGATGCACGTGATGAG | 0 kcal/mol
TTTCCCACGTGGGTTG | -0.09 kcal/mol
TAGTACACGTGCGATG | 0.08 kcal/mol
ATCGTCACGTGTATCG | 0.33 kcal/mol
CGTTTCACGTGGACGT | 0.42 kcal/mol
TGTTGCACGTGGGACG | -0.18 kcal/mol
GATTTCACGTGTTAGC | 0.36 kcal/mol
TGGTGCACGTGAAAAT | 0.2 kcal/mol
CAGGTCACGTGTAGTG | 0.22 kcal/mol
ATGTTCACGTGTTGTA | 0.31 kcal/mol
TTTTTCACGTGAGGGG | 0.45 kcal/mol
GTGGTCACGTGGCGGA | 0.04 kcal/mol
GTGTGCACGTGAATGC | 0.23 kcal/mol
GTGAGCACGTGGGCTA | -0.14 kcal/mol
AGGAGCACGTGTATGA | -0.07 kcal/mol
GGCTACACGTGGGTTT | -0.08 kcal/mol
AATTTCACGTGATAAG | 0.33 kcal/mol
CGTGTCACGTGACGTT | 0.31 kcal/mol
GCGTTCACGTGGGGGA | 0.21 kcal/mol
GCAGGCACGTGGATGG | -0.03 kcal/mol
ATTGTCACGTGAGAGG | 0.12 kcal/mol
CTTAGCACGTGCGGTG | -0.17 kcal/mol
CGGATCACGTGATAGG | 0.27 kcal/mol
TGTGTCACGTGAATCT | 0.16 kcal/mol
TGATTCACGTGGGTTC | 0.27 kcal/mol

Sequence | relative binding free energy
TATTTCACGTGATGGA | 0.41 kcal/mol
GTATTCACGTGGCGAT | 0.23 kcal/mol
CTGAGCACGTGGGTCT | -0.15 kcal/mol
TGATACACGTGGTGAT | 0.01 kcal/mol
GTCAGCACGTGATGGT | 0.15 kcal/mol
GATCGCACGTGGGACG | 0.13 kcal/mol
GTGGCCACGTGTCGGG | 0 kcal/mol
GCTGGCACGTGATGAT | 0.2 kcal/mol
GGGGACACGTGGTGCT | -0.06 kcal/mol
TGGGTCACGTGCGGAA | -0.02 kcal/mol
TCGTTCACGTGGATTT | 0.22 kcal/mol
GCTAACACGTGTAGGT | 0.17 kcal/mol
AGGGGCACGTGGTGCT | -0.23 kcal/mol
AGTGACACGTGGAGCG | -0.13 kcal/mol
TAGGTCACGTGTCGCT | 0.11 kcal/mol
GGTCTCACGTGGGTGT | 0.11 kcal/mol
AGTCACACGTGGGAGG | -0.05 kcal/mol
TTATGCACGTGAGATC | 0.18 kcal/mol
GAGGACACGTGAATTG | 0.37 kcal/mol
TTTTACACGTGTTGGT | 0.09 kcal/mol
TGTTTCACGTGGTGTT | 0.22 kcal/mol
TAGCGCACGTGTGGGT | 0.03 kcal/mol
TTTATCACGTGTAGAG | 0.04 kcal/mol
GCAGTCACGTGTTTGA | 0.22 kcal/mol
GGAGTCACGTGGATGG | 0.17 kcal/mol
TAACTCACGTGTGGAT | 0.23 kcal/mol

Sequence | relative binding free energy
TGATTCACGTGAGGGC | 0.5 kcal/mol
TGTACCACGTGGTAGG | -0.16 kcal/mol
TTCGGCACGTGGGGCT | -0.2 kcal/mol
AAAGTCACGTGGGTCT | -0.09 kcal/mol
TGAGTCACGTGGTCGA | -0.03 kcal/mol
GGGGCCACGTGGCATG | -0.12 kcal/mol
GTTGACACGTGCGCGT | -0.07 kcal/mol
CGGTTCACGTGTTGGG | 0.25 kcal/mol
ATATGCACGTGTTAGG | -0.08 kcal/mol
GAAGTCACGTGTTAAT | 0.21 kcal/mol
TAATGCACGTGGAATT | -0.02 kcal/mol
CTGGGCACGTGGGTAT | -0.16 kcal/mol
TGGTTCACGTGCTGAG | 0.23 kcal/mol
TACGTCACGTGGATTT | 0.02 kcal/mol
ATTGTCACGTGTTGTT | 0.1 kcal/mol
GCTTACACGTGGTGTG | 0.05 kcal/mol
ATGGGCACGTGAAGGG | 0.14 kcal/mol
TTATACACGTGCTTTG | -0.1 kcal/mol
GGGCTCACGTGGATTT | 0.4 kcal/mol
AATTGCACGTGTGGGG | -0.01 kcal/mol
CCTGACACGTGGTGGT | -0.06 kcal/mol
GTTGGCACGTGGGCTA | -0.16 kcal/mol
